The target in the assay is T1, recombinant, human protein tyrosine phosphatase (PTP) 1B (hPTP1B) (Homo sapiens, UniProt P18031).
T1 sequence (P18031 1-435): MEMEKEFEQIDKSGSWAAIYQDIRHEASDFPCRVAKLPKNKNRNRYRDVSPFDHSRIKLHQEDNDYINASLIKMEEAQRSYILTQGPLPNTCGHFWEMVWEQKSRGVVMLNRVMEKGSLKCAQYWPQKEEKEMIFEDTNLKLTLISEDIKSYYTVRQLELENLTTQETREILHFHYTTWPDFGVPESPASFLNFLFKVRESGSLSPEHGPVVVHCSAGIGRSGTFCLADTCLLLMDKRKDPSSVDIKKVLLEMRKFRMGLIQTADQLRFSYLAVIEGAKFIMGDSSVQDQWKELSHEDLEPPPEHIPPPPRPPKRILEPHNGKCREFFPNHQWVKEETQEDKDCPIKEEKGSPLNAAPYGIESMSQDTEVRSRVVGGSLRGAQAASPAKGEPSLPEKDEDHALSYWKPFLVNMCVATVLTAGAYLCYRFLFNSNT

Results on eleven compounds are retold here after patent US6063815A, “Benzopenones useful in the treatment of insulin resistance and hyperglycemia” (American Home Products Corporation, priority 1999, dated 2000).

Turning to `O=C(O)c1ccc(S(=O)(=O)Oc2c(-c3ccccc3)cc(C(=O)c3ccccc3)cc2-c2ccccc2)cc1` [Example 10, 4-(5'-Benzoyl-[1,1';3',1"]terphenyl-2'-yloxysulfonyl)-benzoic acid], the inhibition at 2.5 µM was 34.4%. Regarding `O=C(O)c1ccc(S(=O)(=O)Oc2ccc(C(=O)c3ccccc3Cl)cc2-c2ccccc2)cc1O` [Example 11, 4-[5-(2-Chloro-benzoyl)-biphenyl-2-yloxysulfonyl]-2-hydroxy-benzoic acid], the inhibition at 1 µM stood at 42.8%. In the case of `COC(=O)c1cc(COc2c(I)cc(C(=O)c3ccccc3)cc2I)ccc1OC(C)=O` [Example 3, 2-Acetoxy-5-(4-benzoyl-2,6-diiodo-phenoxymethyl)-benzoic acid methyl ester], the inhibition at 2.5 µM is 34.9%. As to `O=C(c1ccccc1)c1cc(-c2ccccc2)c(OS(=O)(=O)c2ccc(C(=O)O)c(O)c2)c(-c2ccccc2)c1` [Example 4, 4-(5'-Benzoyl-[1,1';3',1"]terphenyl-2'-yloxysulfonyl)-2-hydroxy-benzoic acid], the concentration for half-maximal inhibition (IC50) is 354 nM. Still for that read-out and setting: with `COc1ccc(C(=O)c2cc(-c3ccccc3)c(OS(=O)(=O)c3ccc(C(=O)O)c(O)c3)c(-c3ccccc3)c2)cc1` [Example 8, 2-Hydroxy-4-[5'-(4-methoxy-benzoyl)-[1,1';3',1"]terphenyl-2'-yloxysulfonyl)-benzoic acid] the figure was 1120 nM. As for `COc1ccc(C(=O)c2cc(I)c(OS(=O)(=O)c3ccc(C(=O)O)c(O)c3)c(I)c2)cc1` [Example 7, 4-[2,6-Diiodo-4-(4-methoxy-benzoyl)-phenoxysulfonyl]-2-hydroxy-benzoic acid], the IC50 worked out at 409 nM. Regarding `O=C(c1ccccc1)c1cc(-c2ccsc2)c(OS(=O)(=O)c2ccc(C(=O)O)c(O)c2)c(-c2ccsc2)c1` [Example 9, 4-(4-Benzoyl-2,6-di-thiophen-3-yl-phenoxysulfonyl)-2-hydroxy-benzoic acid], the concentration for half-maximal inhibition (IC50) amounted to 987 nM. Consider `O=C(c1ccccc1)c1cc(-c2ccccc2)c(OCc2ccc(C(=O)O)c(O)c2)c(-c2ccccc2)c1` [Example 2, 4-(5'-Benzoyl-[1,1';3',1"]terphenyl-2'-yloxymethyl)-2-hydroxy-benzoic acid], for which the IC50 was determined as 1260 nM. Consider `CCOC(=O)c1ccc(S(=O)(=O)Oc2c(-c3ccccc3)cc(C(=O)c3ccccc3)cc2-c2ccccc2)cc1O` [Example 5, 4-(5'-Benzoyl-[1,1';3',1"]terphenyl-2'-yloxysulfonyl)-2-hydroxy-benzoic acid ethyl ester], for which the inhibition at 2.5 µM stood at 65.5%. In the case of `COc1ccc(C(=O)c2ccc(OS(=O)(=O)c3ccc(C(=O)O)c(O)c3)cc2)cc1` [Example 6, 2-Hydroxy-4-[4-(4-methoxy-benzoyl)-phenoxysulfonyl]-benzoic acid], the inhibition at 2.5 µM stood at 26.9%.

With `O=C(c1ccccc1)c1cc(I)c(OS(=O)(=O)c2ccc(C(=O)O)c(O)c2)c(I)c1` [Example 12, 4-(4-Benzoyl-2,6-diiodo-phenoxysulfonyl)-2-hydroxy-benzoic acid], the inhibition at 2.5 µM amounted to 64.2%.

Broadly, the inhibition is the drop in the measured response relative to a control, in per cent. As a reminder, the IC50 is the concentration that inhibits the measured activity by half.
